The BET-seq Pho4 binding data (Le et al. 2018)
Some of the results follow. These are noisy estimates, calculated here from bound and input reads.

What follows are sequences tested against T1, Pho4 (S. cerevisiae) (UniProt P07270) (assay: relative binding free energy (BET-seq); higher = weaker binding). Conditions: reference: library average.
T1 sequence: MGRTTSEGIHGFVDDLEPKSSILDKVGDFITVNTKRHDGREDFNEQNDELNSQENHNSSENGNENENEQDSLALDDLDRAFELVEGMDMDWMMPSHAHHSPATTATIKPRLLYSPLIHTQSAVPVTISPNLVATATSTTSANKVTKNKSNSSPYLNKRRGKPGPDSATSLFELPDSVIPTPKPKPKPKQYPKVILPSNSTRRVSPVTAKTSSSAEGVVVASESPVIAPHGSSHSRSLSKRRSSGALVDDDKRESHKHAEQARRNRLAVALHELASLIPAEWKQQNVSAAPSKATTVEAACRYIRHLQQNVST

Sequence | relative binding free energy [kcal/mol]
AGGGTCACGTGGACAA | 0.09
AGAGTCACGTGGTAAT | -0.11
TTTTTCACGTGTTCAG | 0.39
GAGGGCACGTGGGCAA | -0.21
GGAGGCACGTGGACTG | -0.1
GGTGACACGTGTGTAG | 0.07
ATATTCACGTGGGTTG | 0.06
GTTTACACGTGACAGT | 0.34
TTTGTCACGTGGTAGG | 0.04
ATTGTCACGTGTTGTA | 0.04
TATGGCACGTGAAGTT | 0.06
TCATTCACGTGGGTGG | 0.22
AATAGCACGTGGGTAG | -0.23
GTAGCCACGTGTGTAT | -0.1
GGGATCACGTGGGTAC | 0.15
TATTGCACGTGGAGGC | 0
CTGTGCACGTGTTTCT | 0
AAGGCCACGTGGATGT | -0.11
GCGAACACGTGGGGGA | -0.08
GTAATCACGTGGAGCG | 0.2
TTAGGCACGTGGCGAG | -0.26
ACGTGCACGTGGTGAG | -0.01
TTAGACACGTGGAGAT | -0.01
TGGGCCACGTGCCGGT | -0.12
TTTGGCACGTGATCGT | 0
TAAATCACGTGGCGAG | 0.23

Sequence | relative binding free energy [kcal/mol]
TGTTTCACGTGTGTGC | 0.35
TTTTTCACGTGCCAGT | 0.12
GGGTTCACGTGGTTAA | 0.27
AAAGTCACGTGGGATG | 0.09
CTTGTCACGTGTAGGT | 0.15
TTGAGCACGTGATTAT | 0.03
TTGTGCACGTGAACGG | 0.18
TTTGACACGTGATGAG | 0.09
TAAGACACGTGTGTTT | 0.15
AAAATCACGTGGGGTA | 0.06
CGGAACACGTGGGGGC | -0.03
GTGCTCACGTGGGTTC | 0.21
TAGGTCACGTGGGTAG | -0.02
CTTGTCACGTGGGTGC | -0.1
TGGTACACGTGTGATT | 0.09
TGGTGCACGTGTTGTG | 0.04
GTTGACACGTGGTAAG | -0.05
TGTTTCACGTGTTGAG | 0.24
TTAAACACGTGAGTGC | 0.16
TATGGCACGTGCATGT | -0.19
AGTATCACGTGTTGAA | 0.11
TGGCCCACGTGGTTGT | -0.17
AAGTACACGTGTGTTA | -0.07
GGTAGCACGTGACTAG | 0.19
AGTGGCACGTGCTGAG | -0.1
ATAATCACGTGATGTA | 0.16

Sequence | relative binding free energy [kcal/mol]
GTGTTCACGTGCTCGG | 0.29
GTATGCACGTGTAAAG | 0.09
ATTTCCACGTGGTATG | -0.04
TATCGCACGTGTTATG | 0.07
GTGTTCACGTGTGCGT | 0.16
ATGTGCACGTGAAGTA | 0.03
ATGTGCACGTGTTTCT | -0.07
GGGGACACGTGGGCTA | -0.05
GGAGACACGTGTAGTA | 0.03
TAGGGCACGTGGGGGC | -0.26
TGCTTCACGTGTTGCG | 0.24
TTCATCACGTGTTTGA | 0.07
ATTATCACGTGTGTAT | 0.21
TCGTACACGTGTTTTG | 0.06
CGTCTCACGTGGTTTG | 0.16
GTATGCACGTGTTGCA | -0.08
AGTATCACGTGAGGAG | 0.21
TTTGGCACGTGAGATC | 0.24
TGTGTCACGTGCGGAT | 0.11
AGGGGCACGTGGATAG | -0.02
TGGAGCACGTGTGCCG | -0.03
TATCTCACGTGGGGGT | 0.06
ATCGGCACGTGTGGGC | -0.07
GGGTCCACGTGTAGTT | 0.04
CTGTTCACGTGAGATA | 0.37
TAATGCACGTGGCTTG | -0.08

Sequence | relative binding free energy [kcal/mol]
AGTGTCACGTGGAAAT | 0.14
TTGCACACGTGTAAGG | 0
AGTTCCACGTGGGATA | 0.07
TGGAACACGTGTGCTG | 0.06
ACGGTCACGTGCAGGT | 0.1
GAGCGCACGTGTGAGG | -0.05
AGTTACACGTGTGGAC | 0.23
AGGGTCACGTGGTGGA | 0.1
TTGTTCACGTGCGTAA | 0.22
GTTCGCACGTGTGGCG | 0
CGTTGCACGTGGTTGT | -0.06
TGGGTCACGTGTTAAT | 0.27
GTTGCCACGTGTTGGA | -0.03
AGTCTCACGTGGTAAT | 0.21
TCGCTCACGTGGTTGT | 0.18
AGTGTCACGTGGCGCG | -0.02
TTTTTCACGTGAAGAC | 0.43
TCTGTCACGTGTTAGT | 0
ACGTTCACGTGGGTAT | 0.11
CTTTGCACGTGACGTG | 0.12
ACATTCACGTGGAGGT | 0.21
GCTGTCACGTGTGCGT | 0.04
CGGCCCACGTGAGGGG | -0.01
TATTTCACGTGTAACA | 0.37
GTAGTCACGTGTCAGT | 0.18
TTTGGCACGTGAAGGC | 0.12

Sequence | relative binding free energy [kcal/mol]
GGGATCACGTGATTGA | 0.26
TATGGCACGTGAAGTG | 0.17
ATTGTCACGTGTCGGG | 0.1
CGGGTCACGTGGAAGG | 0.22
TTGTACACGTGGTGCC | -0.01
CATGGCACGTGTTGTC | -0.04
TTGTTCACGTGAGTTA | 0.31
ATGAACACGTGCTTGT | -0.07
CTATGCACGTGTATGG | -0.09
TGCCGCACGTGGGGTA | -0.25
GGTTGCACGTGTGGGG | 0.09
GTTGTCACGTGGGTGT | 0.07
AGAGGCACGTGGTGAT | -0.1
AGATTCACGTGAATTG | 0.21
GGAGGCACGTGAGGTT | 0.25
TCCGTCACGTGGTAGT | 0.23
TGTATCACGTGTGAGC | 0.1
TTGGACACGTGGAAAG | 0.16
GCGGCCACGTGGAGGT | -0.05
ATTGGCACGTGGAGTT | -0.05
GGATGCACGTGCGTTG | -0.05
GAGAACACGTGGGGAG | 0.01
AGTATCACGTGTTGTG | 0.11
AATAACACGTGGGTTA | -0.22
TGTCACACGTGGGTCT | -0.14
CGGGCCACGTGGTGGG | -0.1

Sequence | relative binding free energy [kcal/mol]
GGGTTCACGTGGGGTT | 0.22
AGGGGCACGTGTTCGT | -0.05
ATATGCACGTGTGATG | -0.03
AGGGCCACGTGGGTGT | -0.2
GGGCGCACGTGTTCGT | 0.09
GTTATCACGTGGCGAG | 0.32
TTTGACACGTGACTTG | 0.06
TTTGTCACGTGAATGC | 0.37
AGGTTCACGTGTATTG | 0.14
GGAGTCACGTGAAAGT | 0.41
ATGGACACGTGGTAGC | 0.07
ATGTTCACGTGATTAT | 0.35
TTGAACACGTGGTGGC | 0.04
CCTGGCACGTGGGGGT | -0.23
CATAACACGTGGGGGG | -0.13
GGTGGCACGTGGGCCA | -0.17
AGTTTCACGTGTGTGC | 0.37
TGGAGCACGTGGAGGT | -0.09
GGCTGCACGTGGGCGT | -0.13
GGGGTCACGTGAAGGG | 0.3
GATTTCACGTGATGCT | 0.3
TGTGGCACGTGGGGTC | -0.16
ACTTGCACGTGGGGGC | -0.16
TGCGTCACGTGGAAGG | 0.03
TTGGGCACGTGAATAG | 0.07
ATAATCACGTGTTTGC | 0.08

Sequence | relative binding free energy [kcal/mol]
AGGCACACGTGTATGT | 0.01
GGTGTCACGTGTAGCT | 0.14
GGTTACACGTGATTAA | 0
TTTAGCACGTGCGTAT | -0.02
TAGGTCACGTGGAGAG | 0.18
ATCATCACGTGGTGTG | 0.09
ATGTACACGTGGTCGG | 0.05
TGGAGCACGTGAGCAG | 0.11
ATGGGCACGTGGGCGG | -0.23
GCGCTCACGTGTTTGG | 0.13
TTGGTCACGTGCATTT | 0.08
TGAAGCACGTGATGTG | 0.08
TAGTTCACGTGTCGAT | 0.2
TTTATCACGTGAGGCA | 0.33
GAGGGCACGTGGCGGA | -0.07
CGTGGCACGTGATAAA | 0.09
GGGGACACGTGAGGTG | 0.27
TAGTACACGTGTTGTA | 0.07
GTGGGCACGTGCGAGT | -0.14
CTAGGCACGTGAAGGT | 0.13
TTTAACACGTGGAATA | 0.09
GTTGTCACGTGGACAT | 0.08
GTCGGCACGTGGGTGG | -0.14
GAAGACACGTGGGTTA | -0.09
ACGGTCACGTGGGGAG | -0.06
GTAAGCACGTGCGAGT | -0.02

Sequence | relative binding free energy [kcal/mol]
TTTGGCACGTGTCTTC | -0.02
GAATGCACGTGCGAGT | 0.06
AATTTCACGTGAATAT | 0.39
AGGGTCACGTGTGCCG | -0.03
AGTTTCACGTGGCTGT | 0.32
TTGTTCACGTGGGATT | 0.23
TACTTCACGTGGATAT | 0.25
GTTATCACGTGAGTTG | 0.35
GTGGGCACGTGTCATG | 0.01
TCGATCACGTGGGGAT | -0.04
ATGGACACGTGGTAAT | 0.04
TATATCACGTGTGTCA | 0.01
AGGATCACGTGGCGAG | 0.06
CGGTGCACGTGTATCG | 0.04
CGGATCACGTGGGTGG | -0.02
GTATGCACGTGTCTGG | 0.11
CCAGGCACGTGGATGG | -0.1
GGGCGCACGTGGGTTA | -0.1
GTGTTCACGTGAGGAG | 0.39
GCTTTCACGTGGATAG | 0.43
TAGTTCACGTGTGGCT | 0.34
TGATACACGTGAATGT | 0.25
GTGGTCACGTGGGATA | -0.03
ATAATCACGTGGGCAG | 0
GGGTTCACGTGGGGCT | 0.31
TCAGGCACGTGCGTTG | -0.23

Sequence | relative binding free energy [kcal/mol]
TTTCACACGTGTTGAT | 0.02
TCTGGCACGTGCATGT | -0.05
TACTGCACGTGTTGTT | 0.04
AGAGACACGTGGCGGT | -0.05
TGTGGCACGTGGTAGT | -0.18
GTAGTCACGTGGTATG | 0.17
ATAGTCACGTGCTTGA | 0.12
GGATGCACGTGCTTGA | 0.04
TTTGGCACGTGACAGA | 0.11
TAGTTCACGTGTTGAG | 0.31
TTTTTCACGTGGGCTA | 0.23
TGAGGCACGTGGGAGT | -0.22
CTTGTCACGTGGTAAG | 0.14
TGGGGCACGTGTAAAC | 0.14
ATGATCACGTGGTGAT | -0.05
GAATACACGTGGTGTT | 0.1
GGACGCACGTGTTTGG | 0.03
AATGTCACGTGGGTGC | -0.1
GGGGTCACGTGGTAGC | 0.1
TCTATCACGTGCTAGT | 0.25
TTGGACACGTGTCGTA | 0.13
TCCGTCACGTGGTGTG | -0.09
